We go through 88 compounds from publication PMC4336329 (PLoS ONE, 2015).

The structures appear in SMILES notation. The whole screen tested about 310,000 compounds, of which about 14,000 (4.5%) showed an effect of 50% or more. The effect is printed as a negative number. The list shows a part of the results.
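Also: peak tail current of the secondary pulse compared with the same well before compound.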

Sequence of human ether-à-go-go-related gene (hERG) potassium channel (Q12809 whole entry, looked up): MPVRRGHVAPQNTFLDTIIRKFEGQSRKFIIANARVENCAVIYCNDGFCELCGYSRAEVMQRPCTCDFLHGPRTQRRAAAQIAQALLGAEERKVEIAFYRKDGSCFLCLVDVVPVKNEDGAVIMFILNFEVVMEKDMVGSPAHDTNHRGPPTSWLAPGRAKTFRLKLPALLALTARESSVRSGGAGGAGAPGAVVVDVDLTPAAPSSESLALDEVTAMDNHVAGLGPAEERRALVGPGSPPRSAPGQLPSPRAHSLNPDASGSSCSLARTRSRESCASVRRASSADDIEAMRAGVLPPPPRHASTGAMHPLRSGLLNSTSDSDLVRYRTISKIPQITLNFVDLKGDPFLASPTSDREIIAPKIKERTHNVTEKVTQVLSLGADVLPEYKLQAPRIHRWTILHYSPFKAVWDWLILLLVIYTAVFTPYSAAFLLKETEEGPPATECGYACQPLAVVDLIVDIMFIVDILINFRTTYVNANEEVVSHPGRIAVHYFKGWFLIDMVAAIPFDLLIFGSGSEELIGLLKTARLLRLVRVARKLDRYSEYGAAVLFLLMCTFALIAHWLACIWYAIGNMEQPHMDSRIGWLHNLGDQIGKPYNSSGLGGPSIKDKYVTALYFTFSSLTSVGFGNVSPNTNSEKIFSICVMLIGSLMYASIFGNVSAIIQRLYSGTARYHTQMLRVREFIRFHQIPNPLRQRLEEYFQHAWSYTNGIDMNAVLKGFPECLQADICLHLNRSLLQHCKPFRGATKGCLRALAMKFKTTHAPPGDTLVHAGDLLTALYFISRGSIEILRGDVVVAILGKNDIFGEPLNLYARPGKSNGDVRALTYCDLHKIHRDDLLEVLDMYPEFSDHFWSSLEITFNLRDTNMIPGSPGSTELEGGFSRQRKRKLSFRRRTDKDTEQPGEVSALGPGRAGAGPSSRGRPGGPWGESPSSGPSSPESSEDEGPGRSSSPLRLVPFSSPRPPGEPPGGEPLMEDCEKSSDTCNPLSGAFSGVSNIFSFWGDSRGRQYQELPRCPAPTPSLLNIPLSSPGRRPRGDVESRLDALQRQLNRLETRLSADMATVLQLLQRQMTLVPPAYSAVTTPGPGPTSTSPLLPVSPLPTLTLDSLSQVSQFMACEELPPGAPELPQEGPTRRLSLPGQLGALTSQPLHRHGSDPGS

The assay has as its target human ether-à-go-go-related gene (hERG) potassium channel (human, UniProt Q12809). Briefly: primary screen, population patch clamp on CHO cells stably expressing hERG.
`CCOP(=O)(OCC)Oc1cc(C)c(N(C)C)c(C)c1`: the “hERG current change (%, negative = inhibition) at 10uM” value is on record as -4.26%.
Consider `CN(C(=O)c1ccc2c(c1)CCO2)C(C)(C)C`, for which the “hERG current change (%, negative = inhibition) at 10uM” value is listed as 5.7%.
For `COc1ccc2c(CCNC(=O)/C=C/c3ccc(OC)c(OC)c3)c[nH]c2c1`, the “hERG current change (%, negative = inhibition) at 10uM” value came to 14.6%.
In the case of `CC1(C)Cc2cccc(C(=O)Nc3ccc(Cl)cc3)c2O1`, the “hERG current change (%, negative = inhibition) at 10uM” value is recorded as 4.88%.
For `COc1ccc(-c2noc(CN(C)C(=O)Nc3ccccc3)n2)cc1`, the “hERG current change (%, negative = inhibition) at 10uM” value is 13.6%.
Under `O=C(O)C1CCN(C(=O)COc2ccc3c4c(c(=O)oc3c2)CCCC4)CC1` stands 4.66%.
Under `O=Cc1ccc(OC(=O)CCCCC(=O)Oc2ccc(C=O)cc2)cc1` stands 21.7%; under `COc1ccc(NC(=O)C2CCCN(c3nccc(C)n3)C2)cc1` (stereo not shown), -3.13%.
For the compound `Cc1ccc(-c2nn(C)c(=O)c3ccccc23)cc1CN1CCOCC1`, the “hERG current change (%, negative = inhibition) at 10uM” value was -1.21%.
With `CC1CCCC(NC(=O)NC(=O)COC(=O)c2ccc(O)cc2O)C1C` (stereo not shown), the “hERG current change (%, negative = inhibition) at 10uM” value was -13%.
Turning to `CCc1cccc(NC(=O)c2sc3nc4n(c(=O)c3c2C)CCC4)c1`, the “hERG current change (%, negative = inhibition) at 10uM” value is -39%.
For the compound `Cc1cc2c(c(=O)n1C1CC1)C(c1cccc(Cl)c1)C(C#N)=C(N)O2` (stereo not shown), the “hERG current change (%, negative = inhibition) at 10uM” value is listed as -20.6%.
Turning to `Cc1ccc(-c2nc(CS(=O)CC(=O)NC3CCCC(C)C3C)c(C)o2)cc1` (stereo not shown), the “hERG current change (%, negative = inhibition) at 10uM” value is recorded as -7.22%.
Consider `COc1ccc(Cl)cc1NC(=O)CN(C)CC(=O)Nc1c(C)n(C)n(-c2ccccc2)c1=O`, for which the “hERG current change (%, negative = inhibition) at 10uM” value turned out to be 5.04%.
For the compound `C=C1SC(Nc2c(C)cccc2C)=NC12CCCCC2`, the “hERG current change (%, negative = inhibition) at 10uM” value is reported as 13.9%.
Take `O=c1oc(-c2ccc(Br)o2)nc2ccccc12`: the “hERG current change (%, negative = inhibition) at 10uM” value amounted to 26.2%.
With `CN(c1ccccc1)S(=O)(=O)c1ccc(Cl)c(C(=O)NCCc2c[nH]c3ccccc23)c1`, the “hERG current change (%, negative = inhibition) at 10uM” value is -15.8%.
As to `C[C@@H](NC(=O)/C(C#N)=C/c1ccc(O)c(O)c1)c1ccccc1`, the “hERG current change (%, negative = inhibition) at 10uM” value worked out at 3.81%.
Regarding `CC(C)Nc1nc(SCC(N)=O)nc(N2CCOCC2)n1`, the “hERG current change (%, negative = inhibition) at 10uM” value came out at 16.6%.
For `CCC1CCC2(CC1)NC(=O)N(CC(=O)Nc1cc(C)on1)C2=O` (stereo not shown), the “hERG current change (%, negative = inhibition) at 10uM” value is listed as 7.8%.
With `CCOc1ccccc1NC(=O)Cn1c(=O)n(-c2ccc(OC)cc2OC)c(=O)c2c(C)c(C(=O)N(CC)CC)sc21` the figure was 11.2%.
With `CCCC(=O)NC(Nc1c(C)n(C)n(-c2ccccc2)c1=O)C(Cl)(Cl)Cl` (stereo not shown) the figure was -13.2%.
On to `O=c1oc2ccccc2nc1/C=C(\O)c1ccccc1`, for which the “hERG current change (%, negative = inhibition) at 10uM” value is given as 11.8%.
`Cc1cc(Oc2ccc(C#N)cc2)nc(NCc2ccccc2)n1`: the “hERG current change (%, negative = inhibition) at 10uM” value turned out to be 2.36%.
For the compound `Cc1ccc(-n2c(O)c(/C=N/N3CCCCC3c3cccnc3)c(=O)[nH]c2=S)cc1` (stereo not shown), the “hERG current change (%, negative = inhibition) at 10uM” value is given as -4.66%.
For the compound `O=C(O)c1cccc(-n2c(-c3cnccn3)n[nH]c2=S)c1`, the “hERG current change (%, negative = inhibition) at 10uM” value worked out at 20.4%.
Regarding `COc1ccccc1C(=O)NCC(=O)N/N=C/c1cc(Br)ccc1OC(=O)/C=C\c1ccco1`, the “hERG current change (%, negative = inhibition) at 10uM” value came to 12.5%.
On to `COc1ccc2nc(SCCC(=O)O)cc(C)c2c1`, for which the “hERG current change (%, negative = inhibition) at 10uM” value was determined as 21.6%.
With `CCOc1ccc(N(CC(=O)NC2CCCCC2)C(=O)CNC(=O)c2cccs2)cc1` the figure was -30.6%.
Under `Cn1nc(C(F)(F)F)c(-c2ccc(Br)cc2)c1NC(=O)C1CCC1C(=O)O` (stereo not shown) stands 12.3%; under `O=C(O)Cc1ccc(NC(=S)NCc2ccco2)cc1`, 12.9%.
With `Cc1cc(F)ccc1NC(=S)NC1CCCC1` the figure was 17.9%.
With `Cc1ccc2oc(=O)c3cnn(CC(=O)N(CCN(C)C)Cc4ccco4)c3c2c1`, the “hERG current change (%, negative = inhibition) at 10uM” value is reported as -25.7%.
As to `CCN(CC#CCC1(O)c2ccccc2-c2ccccc21)C(C)C`, the “hERG current change (%, negative = inhibition) at 10uM” value is listed as -9.99%.
Turning to `CC(=O)C1=C(c2ccccc2)N(C(C)=O)n2c(C)nnc2S1`, the “hERG current change (%, negative = inhibition) at 10uM” value is given as 9.33%.
As for `COCC1CCN(C(=O)c2oc3c(F)cccc3c2C)C1` (stereo not shown), the “hERG current change (%, negative = inhibition) at 10uM” value turned out to be 0.639%.
With `CC1=C(C(=O)OCc2ccccc2)C(c2ccc(Cl)cc2)NC(=O)N1C` (stereo not shown), the “hERG current change (%, negative = inhibition) at 10uM” value is 14.6%.
With `NC(=O)C1=C[C@H](c2csc3ccccc23)C[C@H](OCCCCO)O1`, the “hERG current change (%, negative = inhibition) at 10uM” value is reported as -4.43%.
For `CCN(C(=O)COc1ccc(C)nc1[N+](=O)[O-])C1CCS(=O)(=O)C1` (stereo not shown), the “hERG current change (%, negative = inhibition) at 10uM” value is listed as -9.18%.
Consider `CCc1noc(C)c1C(=O)NCCN1C(=O)S/C(=C\c2ccc(OC)cc2)C1=O`, for which the “hERG current change (%, negative = inhibition) at 10uM” value is -17.9%.
For `O=C(COC(=O)/C=C/c1cccc(C(F)(F)F)c1)NCc1ccccc1`, the “hERG current change (%, negative = inhibition) at 10uM” value is 11.6%.
On to `O=C(OCC(=O)N1CCN(S(=O)(=O)c2ccc(Cl)cc2)CC1)c1ccc([N+](=O)[O-])o1`, for which the “hERG current change (%, negative = inhibition) at 10uM” value is given as -24.1%.
Regarding `CC(=O)Nc1ccc(Oc2ccc(S(=O)(=O)N3CCCC3)cn2)cc1`, the “hERG current change (%, negative = inhibition) at 10uM” value is reported as -4.39%.
For the compound `O=C(NCC1CC1)c1onc(CSc2nc3ccccc3[nH]2)c1C(=O)NCC1CC1`, the “hERG current change (%, negative = inhibition) at 10uM” value is listed as -69.8%.
For `O=C(O)c1ccc(N/N=C/c2ccc(OC(=O)c3ccccc3Cl)cc2)cc1`, the “hERG current change (%, negative = inhibition) at 10uM” value was -56%.
`O=C(Cn1c(=O)sc2ccccc21)Nc1ccccc1C(=O)O`: the “hERG current change (%, negative = inhibition) at 10uM” value came to 7.15%.
Consider `CCOC(=O)C1=C(C)NC(=O)NC1c1ccc(OC(C)C(=O)O)c(OC)c1` (stereo not shown), for which the “hERG current change (%, negative = inhibition) at 10uM” value came to 2.95%.
As to `COc1ccccc1CNC(=O)C1CCN(c2nc3ccccc3o2)CC1`, the “hERG current change (%, negative = inhibition) at 10uM” value was -9.09%.
On to `CCOC(=O)c1c(Nc2nc(C)c(C(=O)NC)s2)sc(C)c1C`, for which the “hERG current change (%, negative = inhibition) at 10uM” value is -20.2%.
`Clc1ccc2[nH]c(-c3ccccc3)cc2c1`: the “hERG current change (%, negative = inhibition) at 10uM” value is recorded as 21.8%.
On to `COc1ccc(S(=O)(=O)Nc2cccc(N(C)S(C)(=O)=O)c2)cc1Br`, for which the “hERG current change (%, negative = inhibition) at 10uM” value is reported as -20.1%.
With `COC(=O)CN(CCc1ccccc1)S(=O)(=O)c1ccc(OC)c(OC)c1` the figure was -27.9%; with `CC(=O)N1c2ccccc2S(=O)(=O)c2ccccc21`, -2.82%.
With `Cc1ccccc1N1CC(C(=O)Nc2ccc(S(=O)(=O)NCC3CCCO3)cc2)CC1=O` (stereo not shown) the figure was 6.77%; with `O=C(c1ccc(-c2ccc([N+](=O)[O-])cc2Cl)o1)N1CCOCC1`, -37.1%.
As to `COc1cc(-c2nnc(SCc3cc(=O)oc4cc(O)c(O)cc34)o2)cc(OC)c1OC`, the “hERG current change (%, negative = inhibition) at 10uM” value stood at 5.85%.
For the compound `OC(CNCc1ccc(F)cc1)(c1ccccc1)c1ccc(F)cc1` (stereo not shown), the “hERG current change (%, negative = inhibition) at 10uM” value is -33.8%.
Regarding `COc1cc(OC)c(C2N(C)c3ccccc3N2C)cc1OC`, the “hERG current change (%, negative = inhibition) at 10uM” value is listed as 4.63%.
In the case of `CN(CC(=O)N1CCCCC1)S(=O)(=O)c1ccc(Cl)cc1`, the “hERG current change (%, negative = inhibition) at 10uM” value stood at 16.4%.
With `S=c1[nH]nc(C2CCCCC2)n1/N=C/c1ccccc1` the figure was 21%.
For `CN(C)S(=O)(=O)c1cccc(NC(=O)COC(=O)c2c[nH]c(=O)[nH]c2=O)c1`, the “hERG current change (%, negative = inhibition) at 10uM” value is listed as 27.3%.
Take `CCOc1cc(-c2cc(-c3ccccc3)nc(N)c2C#N)ccc1O`: the “hERG current change (%, negative = inhibition) at 10uM” value amounted to 17.2%.
`COc1ccc(C2N=C(c3ccccc3)NC(c3ccccc3)=N2)cc1`: the “hERG current change (%, negative = inhibition) at 10uM” value is -9.52%.
With `O=[N+]([O-])c1cccc(S(=O)(=O)NCCc2cn3ccccc3n2)c1` the figure was -10.5%.
As to `COc1cccc(/C=C2\Oc3cc(OCC(=O)N4CCCC4)ccc3C2=O)c1OC`, the “hERG current change (%, negative = inhibition) at 10uM” value is -6.48%.
With `NC(=O)CC(NC(=O)c1cccc(Br)c1)c1ccc(N2CCC(N3CCCCC3)CC2)c([N+](=O)[O-])c1` (stereo not shown) the figure was 7.64%; with `COc1cccc(Cn2cccc(NC(=O)Nc3ccccc3C)c2=O)c1`, 14.4%.
For `CCOC(=O)c1sc(NC(=O)CSc2nnc(C(C)C)n2C)nc1C`, the “hERG current change (%, negative = inhibition) at 10uM” value is recorded as -12.2%.
Regarding `O=C1C(=O)c2ccc(-c3ccccc3)cc2-c2ccccc21`, the “hERG current change (%, negative = inhibition) at 10uM” value came out at 19.9%.
Under `Cc1cccc(-n2c(CNC(=O)COc3ccccc3)nnc2SCC(=O)Nc2nccs2)c1` stands -13.6%.
On to `Cc1cccc(NC(=O)C2C3CCCCC32)c1` (stereo not shown), for which the “hERG current change (%, negative = inhibition) at 10uM” value is reported as 23%.
With `O=C(CSc1ncccn1)NCc1ccc2c(c1)OCO2` the figure was 11.9%; with `CC(/C=N/N1CCN(c2ccccn2)CC1)=C\c1ccccc1`, -1.63%.
For `COc1ccc(O)c(/C=N/NC(=S)Nc2cccnc2)c1`, the “hERG current change (%, negative = inhibition) at 10uM” value is on record as 25.1%.
For the compound `COc1ccc(N2CC(C(=O)N[C@H](C(=O)NC(C)c3ccccc3)C(C)C)CC2=O)cc1` (stereo partly shown), the “hERG current change (%, negative = inhibition) at 10uM” value was 11.2%.
With `Cn1c(NC(=O)c2cccnc2)nc2ccccc21`, the “hERG current change (%, negative = inhibition) at 10uM” value is 12.6%.
As to `CCC(C)(C)C1CCc2[nH]nc(C(=O)NCc3ccc(Cl)cc3)c2C1` (stereo not shown), the “hERG current change (%, negative = inhibition) at 10uM” value was 20.5%.
Under `CC(C)(C)C(O)(CC#CCN1CCCC1)c1ccccc1.Cl` (stereo not shown) stands 24.5%; under `Cn1nccc1C(=O)N(CCN1CCCCC1)CC1CCCN(C2CCCC2)C1` (stereo not shown), -2.29%; under `CCCc1ccc(C(=O)CCC(=O)NNC(=O)c2ccncc2)cc1`, -24.3%.
Take `COc1ccc(N(C(=O)c2ccco2)C(C(=O)NC2CCCC2)c2cccs2)cc1OC` (stereo not shown): the “hERG current change (%, negative = inhibition) at 10uM” value came to 1.89%.
With `CCOC(=O)c1sc2nccc(OC)c2c1N=CNOC` the figure was -24%; with `O=C(Nc1ccc(O)c(-c2nc3ccccc3s2)c1)c1cccs1`, -9.79%; with `Cc1ccc(C(=O)N2CCN(c3cccc(C)c3C)CC2)o1`, -20.4%.
For the compound `Cc1nc(NCCNC(=O)c2ccco2)c2c(C)c(C)sc2n1`, the “hERG current change (%, negative = inhibition) at 10uM” value is listed as 4.95%.
For `CC(C)(C)C(=O)Nc1cc(C(F)(F)F)ccc1-n1ccnc1`, the “hERG current change (%, negative = inhibition) at 10uM” value was 17.6%.
With `O=C1OCCC/C1=C\c1ccc2c(c1)OCO2`, the “hERG current change (%, negative = inhibition) at 10uM” value is given as 16.8%.
With `COc1ccc(CC(=O)OCC(=O)N(CC(C)C)c2c(N)n(Cc3ccccc3)c(=O)[nH]c2=O)cc1` the figure was 8.52%.
